# Experimental data from PubChem BioAssay AID588855 (National Center for Advancing Translational Sciences (NCATS), 2011).
# Among all 410,000 compounds or so, about 5,000 (1.2%) were called active. The inconclusive results got no clear call from the source; some entries with a clear call stand among them for comparison. The call rests on the fitted dose curve; in most records, active means well fitted inhibition curve with a large enough effect; inconclusive means small, poorly fitted or top-dose-only effect; inactive means no such curve, though single readings can be large or run the other way. Where the call is inconclusive, the potency comes from a doubtful curve fit.
# Test: qHTS for Inhibitors of TGF-b; further: nearly all actives have a fitted effect of over 65% in size
# Conditions: HepG2 CAGA-GFP TGF-b/SMAD3 reporter, GFP fluorescence, 18 h, TGF-beta stimulated, 500 pg/mL final; series mostly up to 46.1 µM
# How it was run: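 First, reporter cells (HEPG2 CAGA-GFP) rested 2 h at 37 degrees C. Next, compounds were pinned in and TGF-beta added to 500 pg/mL final. After 18 h, GFP was imaged per cell and summed per well.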
# Potency means the concentration at half of the fitted maximal effect; tags describe the fitted curve by direction and shape.
row,Structure (SMILES),Potency
1,CCc1ccc(N2CC(C(=O)Nc3cccc(S(=O)(=O)N4CCCC4)c3)CC2=O)cc1 (centres undefined),"inconclusive: 35.5 µM [inhibitor, single point]"
2,CN(C)S(=O)(=O)c1cccc(NC(=O)c2ccc(OC(F)(F)F)cc2)c1,"inconclusive: 14.1 µM [inhibitor, single point]"
3,Cc1ccc(/C=C2\SC(=S)N(CCCC(=O)Nc3ccc(O)cc3)C2=O)cc1,inactive
4,CC(C)CCN(Cc1ccco1)C(=O)c1cc2c(s1)-c1ccccc1OC2,"inconclusive: 35.5 µM [inhibitor, single point]"
5,CCOC(=O)N1CCN(C(=O)CN(Cc2ccc(Cl)cc2)S(=O)(=O)c2ccccc2)CC1,inactive
6,CN(C)S(=O)(=O)c1cccc(NC(=O)Cn2cc(C(F)(F)F)cc(Cl)c2=O)c1,inactive
7,CCCc1[nH]nc2c1C(/C(C)=C/c1ccccc1)C(C#N)=C(N)O2 (centres undefined),"inconclusive: 14.1 µM [inhibitor, single point]"
8,O=C(OCc1nnc(-c2ccccc2)o1)c1cc(S(=O)(=O)N2CCOCC2)c(Cl)cc1Cl,inactive
9,Cc1cc2c(cc1NC(=O)c1ccccc1C)n(C)c(=O)c(=O)n2C,"inconclusive: 0.562 µM [inhibitor, full curve, poor fit]"
10,Cc1c(CC(=O)NCC(C)C)c(=O)oc2cc3c(cc12)CCC(C)(C)O3,inactive
11,Cc1ccc(C(=O)Nc2cc(C(C)C)c(O)c(C(C)C)c2)cc1,"inconclusive: 6.31 µM [inhibitor, partial curve]"
12,C(=C\c1ccccc1)/CN1CCN(C(c2ccccc2)c2nnnn2-c2ccc3c(c2)OCCO3)CC1 (centres undefined),"inconclusive: 14.1 µM [inhibitor, single point]"
13,COc1ccccc1Oc1ccc(-c2cnc3ccccc3n2)cc1[N+](=O)[O-],inactive
14,CC(C)(C)c1ccc(OCC(O)CS(=O)(=O)c2ccccn2)cc1 (centres undefined),"inconclusive: 3.16 µM [inhibitor, single point]"
15,CSc1ccccc1C(=O)N1CCCC(CCC(=O)NCc2ccc(F)c(F)c2)C1 (centres undefined),"inconclusive: 15.8 µM [inhibitor, single point]"
16,COCc1nnc(NC(=O)CCS(=O)(=O)c2ccccc2)s1,"inconclusive: 12.6 µM [inhibitor, single point]"
17,Cc1cc(C)c(S(=O)(=O)Nc2cccc(C(F)(F)F)c2)c(C)c1,"inconclusive: 35.5 µM [inhibitor, single point]"
18,O=C(Nc1cccnc1)c1ccc2nc(-c3ccccc3)c(-c3ccccc3)nc2c1,inactive
19,C=CCNC(=O)COC(=O)c1c2c(nc3ccccc13)CCC2,"inconclusive: 1.12 µM [inhibitor, partial curve, poor fit]"
